This passage reports binding signal results from publication PMC7819943, “Rice protein-binding microarrays: a tool to detect cis-acting elements near promoter regions in rice”.

This is one part of the list.

In the assay the target is T1, OsWOX13 (Oryza sativa, UniProt Q5QMM3 1-267).
T1 sequence: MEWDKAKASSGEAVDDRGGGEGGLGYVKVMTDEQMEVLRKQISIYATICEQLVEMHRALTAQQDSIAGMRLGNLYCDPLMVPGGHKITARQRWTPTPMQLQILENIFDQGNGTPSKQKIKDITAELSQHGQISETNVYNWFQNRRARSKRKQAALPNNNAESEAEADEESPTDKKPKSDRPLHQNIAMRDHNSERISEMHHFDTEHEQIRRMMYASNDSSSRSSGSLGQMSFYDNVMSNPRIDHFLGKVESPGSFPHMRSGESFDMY
As to the kind of experiment: protein-binding microarray (RPBM); PBS, 2% BSA, 51.3 ng/ul salmon testes DNA, 50 uM zinc acetate, 200 nM TF, 25 C, 1 h; high values mean tight binding. The conditions noted are these: protein: recombinant; tags: N-terminal polyhistidine and DsRed monomer fusion (pET32a); label: CyDye5-dUTP incorporated in the synthesized complementary strand; 3' TTTTT single-stranded linker to array surface; dsDNA, one strand shown. Summed up: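 In PBS with 2% BSA, salmon testes DNA and 50 µM zinc acetate, 200 nM protein was incubated on a custom Agilent array at 25 °C for 1 h and then washed off. The array had been made double-stranded by primer extension with Cy5-dUTP and blocked with 2% BSA. The proteins were transcription factors fused N-terminally to polyhistidine and DsRed, expressed in E. coli BL21-CodonPlus and purified on Ni–NTA. The binding signal is per-feature fluorescence intensity (arbitrary units) from an Axon 4000B scanner.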
“TTCACGCTTGATTGGGCTGGGATTAAGGCCCATTTATACACGGAGTCACCTAGTGCAG”: the binding signal was 23500 fluorescence intensity (a.u.).
The result for “GAGTGTTTGATTGCTGCAGTGTGTCTCGGCAAAGCGCGACCGGAGTCACCTAGTGCAG” reads 20100 fluorescence intensity (a.u.); that for “ACGTAATTATAATTATTTTATTGTGAGTTGTTTTATTACTCGGAGTCACCTAGTGCAG”, 26500 fluorescence intensity (a.u.).
To “GCATCAAGATTACGGGTTAACTTTCTTTAGTTAACTCATGCGGAGTCACCTAGTGCAG” belongs 3180 fluorescence intensity (a.u.).
The result for “GGGCTATAAATTTATAGTCAACTATAACACGGACTTTAAGCGGAGTCACCTAGTGCAG” reads 6880 fluorescence intensity (a.u.); that for “ATGACTGTCAAATTATAACACATATAGCTTATCCTGGAAGCGGAGTCACCTAGTGCAG”, 31700 fluorescence intensity (a.u.).
For the sequence “CCTAATTAGTCTTTTAGTGATAGGCGAAGTATCCGTCAACCGGAGTCACCTAGTGCAG”, the binding signal was 42300 fluorescence intensity (a.u.).
To “CGAGTTTAATTGCCATAATAATACGCAATACCCAAATATACGGAGTCACCTAGTGCAG” belongs 14600 fluorescence intensity (a.u.).
To “TGTCAATCAGCGAGCTGACAGCGAACCCCGACGCGCTTCCCGGAGTCACCTAGTGCAG” belongs 30700 fluorescence intensity (a.u.).
The result for “ATTAATTAGATGGTTGAATGACTCCCTTAACTCATGTTAGCGGAGTCACCTAGTGCAG” reads 45700 fluorescence intensity (a.u.); that for “TGCTAATCTGATTTGATCCAAATTATATGGTTATTAATCACGGAGTCACCTAGTGCAG”, 11000 fluorescence intensity (a.u.).
Consider “GGTGATTGGGAGCGAGCGCAGCCGCCTACTTCTAGGGAGCCGGAGTCACCTAGTGCAG”, for which the binding signal was 45500 fluorescence intensity (a.u.).
To “AAATTAAATTATACTCAATACACAAGTTTGAATCTGATTCCGGAGTCACCTAGTGCAG” belongs 11400 fluorescence intensity (a.u.); to “AACTGATCATAACTTCTGCCCAATCAACTCCAGAGTATTCCGGAGTCACCTAGTGCAG”, 7250 fluorescence intensity (a.u.); to “AGGATCGTTAATTAATAGTGACCCCGGTGACAACCTATCCCGGAGTCACCTAGTGCAG”, 20700 fluorescence intensity (a.u.).
To “CGCGCAATTACCTCATTATCCTCTAGATTTTGTGGCAACTCGGAGTCACCTAGTGCAG” belongs 8460 fluorescence intensity (a.u.); to “CAATTTTGCTGATAGGCATAGATTAATCTCTTTGAAAATCCGGAGTCACCTAGTGCAG”, 4070 fluorescence intensity (a.u.); to “AATTGATTGGACTCCACCAACATTAAAATAGTTGTTGATGCGGAGTCACCTAGTGCAG”, 56400 fluorescence intensity (a.u.).
The result for “ATTGATTGCAGCGTGTCATCAGAAACTATAGGACGTGAACCGGAGTCACCTAGTGCAG” reads 42600 fluorescence intensity (a.u.); that for “TGTGAACGTAATTTTAATATAATTTTATTGAGGCTAGGGACGGAGTCACCTAGTGCAG”, 12500 fluorescence intensity (a.u.).
For the sequence “GCAGGATTGACAGAACTCGGGGAGGTCTCCTGATCCGGTGCGGAGTCACCTAGTGCAG”, the binding signal was 41400 fluorescence intensity (a.u.).
To “AAACTTAATTACAGAATCCGTTAGTAAACCGCGAGACGAACGGAGTCACCTAGTGCAG” belongs 18400 fluorescence intensity (a.u.).
The result for “TTAATTATTTTATCTAATTTATAAGTTATTTATTCATCATCGGAGTCACCTAGTGCAG” reads 13400 fluorescence intensity (a.u.); that for “TTATGATTTTCATATAAATCAAATGGGACTTTAATTAATCCGGAGTCACCTAGTGCAG”, 11500 fluorescence intensity (a.u.).
To “CTTGGCTGAAACAAATCAATTAACATCACAAACAGGAGAACGGAGTCACCTAGTGCAG” belongs 11300 fluorescence intensity (a.u.); to “GGGATTGGTGTGGATTGGGTGGAGAATTACTCCCACCCCGCGGAGTCACCTAGTGCAG”, 24500 fluorescence intensity (a.u.); to “GAATTTAGGACCAGTCACTAATTAACTATATAGTATATATCGGAGTCACCTAGTGCAG”, 3600 fluorescence intensity (a.u.).
Consider “ATATTGATTAAGCATAAGCAGGTCGGCTCTTTGACCAAACCGGAGTCACCTAGTGCAG”, for which the binding signal is 14300 fluorescence intensity (a.u.).
Turning to “AGTGATCATTGATCTAAACTACTTGCAGGTGACGCACACGCGGAGTCACCTAGTGCAG”, the binding signal was 6200 fluorescence intensity (a.u.).
For “ATTAATTAATTAATTAATTAATTAATACTCCTCTCTTCCACGGAGTCACCTAGTGCAG”, the binding signal is 65500 fluorescence intensity (a.u.).
To “ACTCGAAATTTGTTGGTAGGATTAGTGAATAGAGACGGTGCGGAGTCACCTAGTGCAG” belongs 3210 fluorescence intensity (a.u.); to “TTTAAGGGGCAATGAATCTGTAATTGAAAGCATGGTTTCACGGAGTCACCTAGTGCAG”, 5480 fluorescence intensity (a.u.).
Turning to “TCCTTAAATATCGGGCAATCATCGTCACACACAGTGACAGCGGAGTCACCTAGTGCAG”, the binding signal was 3610 fluorescence intensity (a.u.).
As for “ATTTTGACTGATGTGACGTTTGCGTGGCTGGTTTGATTAGCGGAGTCACCTAGTGCAG”, the binding signal is 28900 fluorescence intensity (a.u.).
“TCCCGGTAATTCCAATTCCAATTCCAATTCCAATTCATCTCGGAGTCACCTAGTGCAG”: the binding signal was 8480 fluorescence intensity (a.u.).
Regarding “CCCCATTTGTAAATTGTGATTGGCTAGAGAAATTCAAACCCGGAGTCACCTAGTGCAG”, the binding signal is 23900 fluorescence intensity (a.u.).
As for “CCAATTAAAATTTTCTTACTAAACTCTTACCCTCAATGATCGGAGTCACCTAGTGCAG”, the binding signal was 4890 fluorescence intensity (a.u.).
The result for “CAAATCAGTCAAATAGTCAAACAAAACACACACCACCAGCCGGAGTCACCTAGTGCAG” reads 5890 fluorescence intensity (a.u.); that for “GGAGAGATTTATTGGATTAGCATCAGCAGCAAGGGCGGCGCGGAGTCACCTAGTGCAG”, 6020 fluorescence intensity (a.u.).
To “CCTGTGATTAACTAATCTCCCTTCTGCATATACAGCACCCCGGAGTCACCTAGTGCAG” belongs 48900 fluorescence intensity (a.u.); to “TTTTACGATAATTTGATCAAATCATATATATGTATAGTAACGGAGTCACCTAGTGCAG”, 14700 fluorescence intensity (a.u.); to “TGCGTGCATGATTAGTTATTACAGGTCGTCATTGATTGAGCGGAGTCACCTAGTGCAG”, 27800 fluorescence intensity (a.u.).
